{
  "source": "PubChem BioAssay AID720542",
  "about": "(National Center for Advancing Translational Sciences (NCATS), 2013)",
  "note": "The whole screen tested about 360,000 compounds, of which about 740 (0.21%) were called active. Inconclusive means that the source gave no clear call. Such entries were picked first, then a sample of the others. Calls come from the whole dose curve; as a rule, active = well fitted inhibition curve with a large enough effect; inconclusive = small, poorly fitted or top-dose-only effect; inactive = no such curve, though single readings can be large or run the other way. Potencies of inconclusive entries are left out as doubtful fits. Potency is the fitted concentration of half-maximal effect; tags give direction and shape of the fitted curve.",
  "data": [
    {"tested_on": "Plasmodium falciparum AMA1 (3D7) - RON2 peptide interaction", "assay": "qHTS for Inhibitors of AMA1-RON; Towards Development of Antimalarial Drug Lead: Primary Screen; note: nearly all actives have a fitted effect of over 45% in size;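 for activity change, negative = inhibition: 0% = vehicle wells and -100% = peptide control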", "conditions": "AlphaScreen AMA1-biotinylated RON2 peptide binding; activity change, negative = inhibition: at 58.2 µM (top of the series) unless noted", "method_in_brief": "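AMA1 (3D7) with his tag at 25 nM final met compounds first, then biotinylated RON2 peptide at 25 nM; detection used donor plus acceptor beads, 10 µg/mL apiece, read by AlphaScreen after 30 min at room temperature.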", "values": [
      {"smiles": "O=C1C(N2CCOCC2)=C(n2nnc3ccccc32)C(=O)c2ccccc21", "Potency": "inconclusive [inhibitor, single point]"},
      {"smiles": "OC[C@H]1O[C@H](OC[C@H]2OC(O)[C@H](O)[C@@H](O)[C@@H]2O)[C@H](O)[C@@H](O)[C@@H]1O", "note": "(stereo not given in full)", "activity change, negative = inhibition": "inactive: -8.53%"},
      {"smiles": "CCCCNC(=O)c1ccc2c(c1)N(CC)C(=O)c1ccccc1S2(=O)=O", "activity change, negative = inhibition": "inactive: -1.51%"},
      {"smiles": "CSc1ccc(C2c3[nH]c4ccccc4c3CCN2C(=O)c2ccnn2C)cc1", "note": "(stereo not given)", "Potency": "inconclusive [inhibitor, single point]"},
      {"smiles": "O=C(c1c(O)cc(O)cc1O)C1c2c(cc(O)c3c2O[C@H](c2ccc(O)cc2)[C@@H](O)C3)OC1c1ccc(O)cc1", "note": "(stereo not given in full)", "Potency": "inconclusive [inhibitor, partial curve]"},
      {"smiles": "O=C(Nc1ccccc1)c1ccc(NCCN2C(=O)CCC2=O)c([N+](=O)[O-])c1", "Potency": "inconclusive [inhibitor, single point]"},
      {"smiles": "COc1ccccc1C(=O)NCCOc1ccc(C(C)(C)C)cc1", "activity change, negative = inhibition": "inactive: 24.4%"},
      {"smiles": "NNc1ccc([N+](=O)[O-])c2[nH][nH]c(=O)c12", "Potency": "inconclusive [inhibitor, partial curve, poor fit]"},
      {"smiles": "[O-][n+]1c2ccccc2[n+]([O-])c2cc(O)ccc21", "Potency": "inconclusive [inhibitor, partial curve, poor fit]"},
      {"smiles": "Clc1nc2ccccc2cc1/C=N/Nc1nc2ccccc2[nH]1", "activity change, negative = inhibition": "inactive: 97.7%"},
      {"smiles": "Cc1ccc(CN2CCN(Cc3ccccc3F)CC2)cc1", "Potency": "inconclusive [inhibitor, single point]"},
      {"smiles": "Cc1nc(C)c(-c2ccc(SCc3ccccc3C)nn2)s1", "activity change, negative = inhibition": "inactive: -3.78%"},
      {"smiles": "COc1cccc(O)c1CN1CCCC(C(=O)c2ccccc2SC)C1", "note": "(stereo not given)", "activity change, negative = inhibition": "inactive: -5.09%"},
      {"smiles": "Cc1cccc(NC(=O)C2CCN(S(=O)(=O)c3ccc(Cl)cc3)CC2)n1", "Potency": "inconclusive [inhibitor, single point]"},
      {"smiles": "Cc1ccc(Cl)cc1N1CCN(CC(O)COCc2ccco2)CC1", "note": "(stereo not given)", "Potency": "inconclusive [inhibitor, partial curve, poor fit]"},
      {"smiles": "O=C(/C=C/c1cc([N+](=O)[O-])ccc1OC(F)F)Nc1cccc(OC(F)F)c1", "activity change, negative = inhibition": "inactive: 0.2%"},
      {"smiles": "CC(C)=CCC/C(C)=C/CNC(=O)C[C@H]1C[C@H](C(=O)N2CCOCC2)[C@@]2(C)c3[nH]c4cc(-c5ccco5)ccc4c3CCN2C1=O", "Potency": "inconclusive [inhibitor, single point]"},
      {"smiles": "CCN(CC)c1ccc(NC(=O)C2CC(=O)N(Cc3ccccc3)C2)cc1", "note": "(stereo not given)", "Potency": "inconclusive [inhibitor, single point]"},
      {"smiles": "CC(C(=O)Nc1ccccc1C(F)(F)F)N1CCN(C)CC1", "note": "(stereo not given)", "Potency": "inconclusive [inhibitor, partial curve]"},
      {"smiles": "CN(C)c1nc(-c2ccc([N+](=O)[O-])cc2)cs1", "Potency": "inconclusive [inhibitor, single point]"},
      {"smiles": "COc1ccc(C(=O)c2ccccc2)c(O)c1", "activity change, negative = inhibition": "inactive: 5.56%"},
      {"smiles": "Cc1sc2ncnc(NCCN3CCOCC3)c2c1C", "Potency": "inconclusive [inhibitor, partial curve]"},
      {"smiles": "O=[N+]([O-])c1cc(C(F)(F)F)ccc1NN=C1CCCC1", "Potency": "inconclusive [inhibitor, partial curve]"},
      {"smiles": "Cc1ncc(N=Nc2ccccc2Cl)c(-c2ccccc2)n1", "Potency": "active: 25.1 µM"},
      {"smiles": "CCCCN(C=O)c1c(CC)nc2c(OCCOc3ccccc3)cccn12", "activity change, negative = inhibition": "inactive: 4.86%"},
      {"smiles": "COc1cc(CNc2ncnc3c2ncn3[C@H]2CN(Cc3ccc(-c4ccccc4)cc3)C[C@@H](CO)O2)cc(OC)c1OC", "Potency": "inconclusive [inhibitor, partial curve]"},
      {"smiles": "Cc1cc(C)c2sc(NC(=O)C3CC3)nc2c1", "activity change, negative = inhibition": "inactive: 24.1%"},
      {"smiles": "Cc1cc(=O)oc2cc(OCC(=O)N/N=C/c3cc([N+](=O)[O-])ccc3O)ccc12", "Potency": "inconclusive [inhibitor, full curve]"},
      {"smiles": "Cc1cc(Cl)c(OCCOCCN2CCN(C)CC2)c(Br)c1", "Potency": "inconclusive [inhibitor, single point]"},
      {"smiles": "Oc1ccccc1-c1nc2cnccn2c1Nc1ccc2c(c1)OCCO2", "Potency": "inconclusive [inhibitor, partial curve]"},
      {"smiles": "O=C(NCCSc1ccccc1)c1ccc(Br)cc1", "activity change, negative = inhibition": "inactive: 31.8%"},
      {"smiles": "COc1cc(OC)cc(-c2c(-c3cccs3)c3cc(-c4ccc(CN5CCOCC5)cc4)ccc3n2C)c1", "Potency": "inconclusive [inhibitor, partial curve]"},
      {"smiles": "Cc1[nH]c2ccccc2c1C1(O)C(=O)N(Cc2ccc3c(c2)OCO3)c2ccccc21", "note": "(stereo not given)", "Potency": "inconclusive [inhibitor, partial curve]"},
      {"smiles": "CCOC(=O)c1[nH]cnc1C(=O)Nc1ccc(Cl)cc1", "activity change, negative = inhibition": "inactive: 103%"},
      {"smiles": "CCOC(=O)C1(Cc2ccccc2Cl)CCN(Cc2csc(C(C)=O)c2)CC1", "Potency": "inconclusive [inhibitor, single point]"}
    ]}
  ]
}
